Measurements taken from the supplement of paper PMC8748497.
Several values for one entry are separate records, joined by “and”; a condition that tells them apart may be missing. Identical values can stand only once. Some of the results follow.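 How the source made its calls: active = fold change of at least 2 over DMSO control; inactive = below 2-fold.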 Repeats are few or missing, and single values can be far off.

These compounds were tested on HEK293 ARE/NRF2-luciferase reporter (assay: ARE/NRF2 luciferase reporter activity, fold change over DMSO control; higher = stronger NRF2/ARE reporter activation). Settings: 10 µM; 24 h.

Row | SMILES | ARE/NRF2 luciferase reporter activity
1 | Cc1cc(C(C#N)c2ccc(Cl)cc2)c(Cl)cc1NC(=O)c1cc(I)cc(I)c1O (stereo not drawn) | inactive: 0.859
2 | Oc1cc(Cl)ccc1Oc1ccc(Cl)cc1Cl | inactive: 1.12
3 | O=C1C[C@@H]2OCC=C3CN4CC[C@]56c7ccccc7N1[C@H]5[C@H]2[C@H]3C[C@H]46 | inactive: 0.867
4 | Nc1ncn[nH]1 | inactive: 1.02
5 | CCCCC(C#N)(Cn1cncn1)c1ccc(Cl)cc1 (stereo not drawn) | inactive: 0.703
6 | CC(C)=CC1C(C(=O)OCc2cccc(Oc3ccccc3)c2)C1(C)C (stereo not drawn) | inactive: 1.12
7 | C=CCc1cc(OC)c2c(c1OC)OCO2 | inactive: 0.832
8 | C#CC(C)(O)CC (stereo not drawn) | inactive: 1.06
9 | CCNC1(c2cccs2)CCCCC1=O (stereo not drawn) | inactive: 1
10 | C[C@]12CCC(=O)C=C1C=C[C@@H]1[C@@H]2CC[C@@]2(C)[C@H]1CC[C@@]2(O)CCC(=O)O | inactive: 1.02
11 | O=c1c(O)c(-c2ccc(O)c(O)c2)oc2c(O)c(O)cc(O)c12 | inactive: 0.933
12 | CC(=O)[O][Hg][c]1ccccc1 | inactive: 0.000802
13 | CCN(CC)CCOC(=O)C(O)(c1ccccc1)c1ccccc1 | inactive: 0.85
14 | CCCCOC(=O)c1ccccc1C(=O)OCCCC | inactive: 0.907
15 | Nc1ccncc1 | inactive: 0.984
16 | Cc1cnc[nH]1 | inactive: 0.796
17 | CCC1(C2=NCCN2)Cc2ccccc2O1 (stereo not drawn) | inactive: 0.934
18 | O=C1C=CC(=O)c2ccccc21 | active: 6.58
19 | COc1cc2c(c(OC)c1OC)-c1ccc(O)c(=O)cc1[C@@H](N)CC2 | inactive: 0.714
20 | CC1=CC(=O)c2c(O)cccc2C1=O | inactive: 0.0307
21 | CN1CCc2cc3c(cc2[C@H]1[C@@H]1OC(=O)c2c1ccc1c2OCO1)OCO3 | inactive: 0.818
22 | CN1C(=O)C(O)N=C(c2ccccc2)c2cc(Cl)ccc21 (stereo not drawn) | inactive: 1.19
23 | N=C(N)NN | inactive: 0.886 and inactive: 0.918
